SMILES strings stand for the structures. In all, about 13,000 compounds were measured (“IFI”: median about 4, highest 2% from about 17 on). Some of the results follow.

This test in a line: GSK_TCMDC: Inhibition Frequency Index (IFI). The number of non-kinase HTS assays where a compound showed > 50 % inhibition, expressed as a percentage of the number of such assays in which the compound was tested (-0 is zero). It is filed as functional.
`O=S(=O)(/C=C/c1ccccc1)N(Cc1ccc(-c2ccc(CNCCOc3ccccc3)cc2)cc1)CC1CCCCN1` (stereo not given) returned an IFI of 12.4%.

In turn, `COc1cc2/c(=N/c3ccc(Br)cc3F)nc[nH]c2cc1OCC1CCN(C)CC1` yielded an IFI of 7.25%.

Turning to `O=C(Nc1cccc(C(F)(F)F)c1)N1CCOC(CCN2CCC3(CCc4ccccc43)CC2)(c2ccc(Cl)c(Cl)c2)C1` (stereo not given), the IFI was 6.71%.

Take `COc1cc(Nc2ccnc3ccc(C(C)(C)C)cc23)cc(OC)c1OC`: the IFI turned out to be 0.75%.

Take `COc1cccc(-c2ccc3ccnc(N)c3c2)c1`: the IFI stood at 7.87%.

For the compound `Nc1ccc2[nH]cc(C3CCN(CC4CCC(NC(=O)/C=C/c5ccc(Cl)c(Cl)c5)CC4)CC3)c2n1` (stereo not given), the IFI was 5.56%.

`CCOc1ccc(C(C)NC(=O)c2ccc(OC)c(Br)c2)cc1OCC` (stereo not given) came in with an IFI of 2.08%.

For the compound `COc1ccc(Nc2nccc(NCCNC(=O)Nc3cc(C)ccc3C)n2)cc1`, the IFI stood at 4.62%.

Compound `COc1cc(C)cc(CN2CCC(Cc3ccccc3)CC2)c1O` returned an IFI of 0.84%.

Turning to `N=C(N)Nc1nc(CCCCCCCCc2csc(NC(=N)N)n2)cs1`, the IFI was 10.1%.

As to `O=C(N1CCN(c2ccnc3cc4c(cc23)N(Cc2ccccc2)CC4)CC1)C(F)(F)F`, the IFI was found to be 5.67%.

In the case of `COc1cccc2c(Nc3ccccc3C)nc(Nc3ccccc3C)nc12`, the IFI was 5.97%.

Regarding `CCN(CC)CCCC(C)Nc1c2ccccc2nc2ccccc12` (stereo not given), the IFI stood at 0%.

With `COc1ccc(CC2(c3ccc(F)cc3)N=C(N)N(CCCc3ccccc3)C2=O)cc1` (stereo not given), the IFI is 16.7%.

Regarding `CCOc1cc(C(=O)NC2CC(C)(C)NC(C)(C)C2)ccc1-c1cc2cc(Cl)c(Cl)cc2[nH]1`, the IFI came to 6.94%.

With `O=C(Nc1ccc(Br)cc1)c1cc(Br)ccc1NS(=O)(=O)c1cc(C(F)(F)F)cc(C(F)(F)F)c1`, the IFI turned out to be 19.9%.

On to `CN(Cc1cccc(F)c1)C1CCCN(c2cc(NC(=O)c3ccccc3)ccn2)C1` (stereo not given), for which the IFI is -0%.

`Cc1ccc(C(=O)N2CCN(Cc3nccs3)CC2)cc1` came in with an IFI of 0%.

On to `Clc1ccc(Nc2nc(Nc3ccc(Cl)c(Cl)c3)nc(Sc3nc4ccccc4[nH]3)n2)cc1Cl`, for which the IFI worked out at 0.72%.

In turn, `O=C(Nc1ccc(-c2nc3ccccc3[nH]2)cc1)c1cccc([N+](=O)[O-])c1` showed an IFI of 1.46%.

`O=C(Nc1ccc(OC2CCN(Cc3ccsc3)C2)c(Cl)c1)c1cccs1` (stereo not given) returned an IFI of -0%.

Regarding `CCCCCC(C)N/C(=N/c1ccccc1Br)Nc1ccc([N+](=O)[O-])cc1O` (stereo not given), the IFI worked out at 6.47%.

Consider `Nc1c(Cl)cc(C(O)CNCCCCCCOCCc2ccc(CO)s2)cc1Cl` (stereo not given), for which the IFI stood at 3.08%.

Regarding `CN(C)CCCc1cc2c(cc1Cl)CCN2C(=O)Nc1ccc(-c2ccncc2)c2ccccc12`, the IFI was found to be 1.54%.

In the case of `COc1ccc(CNCc2cccc(-c3ccc(-c4nc5cc(C(F)(F)F)ccc5[nH]4)cc3)c2)cc1`, the IFI turned out to be 12.5%.

For `CC(Cc1ccc(OCCCCOc2ccccc2)cc1)NCCc1ccc(Oc2ccccc2)cc1` (stereo not given), the IFI was 18.2%.

Consider `O=C(C1COc2ccccc2O1)N(CCCn1ccnc1)Cc1csc(-c2ccc(CNCc3ccccc3)cc2)n1` (stereo not given), for which the IFI worked out at 2.74%.

For the compound `CC(C)CNCc1cccc(-c2cccc(CN(CCN(C)C)C(=O)NCCc3ccccc3)c2)c1`, the IFI is 5.11%.

Compound `CCN(CCCN1CCCCC1)c1cc(C)nc(Nc2ccc(C(F)(F)F)cc2)n1` returned an IFI of 1.28%.

For the compound `O=C(NC1CCCCC1)N(Cc1ccc(-c2cccc(CNC3CCCC3)c2)cc1)C1CCN(Cc2ccccc2)CC1`, the IFI came out at 8.46%.

Compound `O=C(Nc1ccc(C(F)(F)F)cc1)c1cccc(S(=O)(=O)NC2CCN(CC3CCCCC3)C2)c1` (stereo not given) gave an IFI of 14.5%.

For the compound `CCN(CC)C(C)(C)CN(Cc1ccc(-c2ccc(C(F)(F)F)cc2)cc1)C(=O)Cn1c(CCc2cccc(F)c2F)nc(=O)c2ccccc21`, the IFI amounted to 6.94%.

`OC(c1cccc(OCc2ccccc2)c1)C1CN(CCc2ccccc2)CCC1(O)c1ccccc1` (stereo not given): the IFI came out at 7.03%.

The compound `CC(C)(C)c1ccc(CN2CCC(NC(=O)c3ccc(-c4cccc(C(F)(F)F)c4)s3)CC2)cc1` returned an IFI of 13%.

Take `COc1cc2nc(NCC3CCN(C(=O)c4ccc(-c5ccc(C(=O)N(C)C)cc5C)cc4)CC3)nc(N)c2cc1OC`: the IFI was 3.54%.

Compound `CCN(CC)Cc1cccc(-c2cc3c(-c4ccc(C(=O)O)c(C(C)C)c4)ccnc3[nH]2)c1OC` registered an IFI of -0%.

For the compound `CC(C)(C)c1ccc(CNC(=O)/C=C/c2ccc(-c3nc4cc(C(C)(C)C)ccc4[nH]3)cc2)cc1`, the IFI is 1.48%.

The compound `CN1CCN(CCCNCc2cccc(Nc3nccc(Nc4ccc(Oc5ccccc5)cc4)n3)c2)CC1` registered an IFI of 6.47%.

Regarding `CCOc1cc(C(=O)N[C@@H](Cc2ccccc2)[C@H](O)CNCc2cc(OC)cc(OC)c2)cc(N2CCCS2(=O)=O)c1`, the IFI was 3.6%.

`CN(c1ccc(F)cc1)S(=O)(=O)c1ccc(Cl)c(C(=O)Nc2cccc(C#N)c2)c1`: the IFI was found to be 4.76%.

Regarding `Cc1cccc2nc(-c3cccc(-c4ccc(CNCc5cnn(-c6ccccc6)n5)cc4)c3)[nH]c12`, the IFI is 1.64%.

With `CCc1nc(N)nc(N)c1-c1ccc2c(c1)CCCC2`, the IFI worked out at 4.9%.

`Oc1ccc(CCNc2nc(N/N=C/C=C/c3ccc(Cl)cc3)nc(N3CCNCC3)n2)cc1` displayed an IFI of 7.52%.

In turn, `Cc1cc(F)ccc1Nc1nc(N(C)c2ccccc2)c2cc(OCCN(C)C)ccc2n1` registered an IFI of 7.91%.

Regarding `COC(=O)c1cccc(NC(=O)NC2CCN(c3ccnc(NCc4ccc(F)cc4)n3)CC2)c1`, the IFI came out at 5.88%.

Turning to `COc1cc(Nc2nccc(-c3c(-c4cccc(NC(=O)c5c(F)cccc5F)c4)nn4ncccc34)n2)cc(OC)c1OC`, the IFI came out at 9.42%.

Turning to `COc1cccc([C@@H](CC(=O)Nc2cc(C(F)(F)F)ccc2OC)Nc2ccc(C#N)c3ccccc23)c1`, the IFI was -0%.

For the compound `CCn1cc2c3c(cc(C(=O)N[C@@H](Cc4ccccc4)[C@H](O)CNC4CCOCC4)cc31)N(C)S(=O)(=O)CC2`, the IFI worked out at 2.17%.

Take `Cc1cccc(CN2CCN(c3ncc(C(=O)NC4CC4)cc3Cl)CC2)c1`: the IFI is -0%.

With `COc1cc(F)c2nccc([C@@H](O)CN3CCC(NCc4cc5c(cc4F)OCCO5)CC3)c2c1`, the IFI amounted to 1.59%.

Compound `COc1cc2nc(NCc3ccc(S(N)(=O)=O)cc3)nc(Nc3ccc(Oc4ccccc4)cc3)c2cc1OC` came in with an IFI of 5.15%.

The compound `CNc1ccc(CNCc2ccc(-c3ccc(-c4nc5cc(C(F)(F)F)ccc5[nH]4)s3)cc2)cc1` came in with an IFI of 16%.

The compound `Cc1cccc2nc(-c3cccc(-c4cccc(CN5CCN(c6ccncc6)CC5)c4)c3)[nH]c12` came in with an IFI of 10.6%.

The compound `O=[N+]([O-])c1ccc(Oc2ccccc2CNCC2CCN(CC3CCCCC3)CC2)cc1` gave an IFI of 5.88%.

As to `O=C(Nc1cc(F)cc(F)c1)N1CCOC(CCN2CCC(c3ccccc3)CC2)(c2ccc(Cl)c(Cl)c2)C1` (stereo not given), the IFI is 8.11%.

On to `Cc1cc(-c2ccc(CN3Cc4ccccc4C3)cc2)ccc1S(=O)(=O)NCCN1CCCC1`, for which the IFI is 13%.

Regarding `O=C(/C=C/c1ccc(Cl)c(Cl)c1)NCCC(CN1CCC(c2c[nH]c3ccccc23)CC1)c1ccccc1` (stereo not given), the IFI was determined as 13.5%.

`CCC(C)c1ccc(NC(=O)Nc2ccnc3ccccc23)cc1` (stereo not given): the IFI came out at 10.2%.

The compound `c1ccc(Oc2ccc(Nc3ccnc4cc(-c5ccc(CNCCN6CCOCC6)o5)ccc34)cc2)cc1` displayed an IFI of 7.86%.

The compound `O=C(Nc1cccc(-c2cccc(-c3nc4ccccc4[nH]3)c2)c1)c1csnn1` yielded an IFI of 3.64%.

Consider `Cc1csc2nc(-c3ccccn3)nc(Nc3ccc4ncsc4c3)c12`, for which the IFI turned out to be 7.75%.

`CCNc1cc(C(=O)N[C@@H](Cc2ccccc2)[C@H](O)CNCCc2ccccc2)cc(N2CCCCS2(=O)=O)c1` yielded an IFI of 1.46%.

`Cc1cc(C)c2ncc(C(=O)O)c(O)c2c1` had an IFI of 1.46%.

The compound `N=C(N)NCCCCN(Cc1ccccc1)c1ccccc1` yielded an IFI of 7.97%.

`Cc1cccc(-c2cccc(CNc3nc(NCCc4ccc(O)cc4)nc(N4CCNCC4)n3)c2)c1` returned an IFI of 12.7%.

`CCC(CC)OC(=O)C(C)c1cccc(C(=O)c2ccccc2)c1` (stereo not given): the IFI was found to be 1.49%.

For the compound `COc1cccc(CNc2noc(-c3c(-c4ccccc4)noc3C)n2)c1OC`, the IFI is 1.56%.

With `COc1ccc2nccc([C@@H](O)CN3CCC(NC(=O)/C(=C/c4ccccc4)c4ccc(-c5ccccc5)cc4)CC3)c2c1`, the IFI turned out to be 0%.

On to `COCCSc1nc2scc(C)c2c(=O)n1Cc1cccc(OC)c1`, for which the IFI was determined as 1.35%.

Compound `COC(=O)Cn1c2ccccc2c2c(N)c(C(=O)OC)c(C)nc21` yielded an IFI of -0%.

Take `COc1cc(OC)cc(-c2nnc(Sc3ccc(C#N)c([N+](=O)[O-])c3)n2C)c1`: the IFI stood at 2.13%.

Compound `CNc1nc(N/N=C/c2cc3c(cc2[N+](=O)[O-])OCO3)nc(Nc2cccc(C(F)(F)F)c2)n1` yielded an IFI of 2.14%.

`COc1ccc(Cc2c(Cl)nc3nc(N)nc(N)c3c2C)cc1` came in with an IFI of 2.7%.

In the case of `CN1CCN(CCCN(Cc2cccc(-c3ccc(CNCCc4ccccc4)cc3)c2)C(=O)Nc2ccccc2)CC1`, the IFI amounted to 10.7%.

`Cc1ccc(Cc2cccc3nc(N)nc(N)c23)cc1`: the IFI was 4.7%.

In turn, `Cc1nc(N)nc(N)c1OCCCCOc1ccccc1` had an IFI of 2.9%.

As for `Cc1cc(Nc2ccnc(-c3ccc(Cl)cc3)n2)ccn1`, the IFI was 2.19%.

The compound `Fc1cc(Cl)ccc1Nc1ccnc2cc(-c3scnc3CNCCN3CCOCC3)ccc12` came in with an IFI of 2.27%.

Compound `COc1ccc2nc(C)cc(N/N=C/c3ccc([N+](=O)[O-])o3)c2c1` had an IFI of 4.23%.

Compound `Cc1cc(=NN=CC=Cc2ccccc2)c2cc(F)ccc2[nH]1` displayed an IFI of 0.75%.

`CCCCCC(C)c1cc(O)c2c(c1)OC(C)(C)C=C2C1=CCN(Cc2ccccc2)CC1` (stereo not given) returned an IFI of 10.9%.

Regarding `O=C(Nc1ccc(F)cc1F)NC1CCN(c2ccnc3cc(Cl)ccc23)C1` (stereo not given), the IFI turned out to be 3.08%.

`c1cnc2ccc(NCc3ccc(-c4ccc(CNC5CCCC5)cc4)cc3)cc2c1`: the IFI stood at 8.33%.

Regarding `CN(C)Cc1cccc(-c2ccc(Nc3nccc(NCC(O)c4ccccc4)n3)cc2)c1` (stereo not given), the IFI was 17.2%.

In turn, `Cc1c(CCNC(=O)CCCN2CC(C)CC(C)C2)c2ccccc2n1C` (stereo not given) gave an IFI of 0.75%.

Consider `O=c1cc(NCCCNCc2cccc(SC(F)(F)F)c2)[nH]c2ccccc12`, for which the IFI turned out to be 2.17%.

With `CCN(CC)/C(=N/C(=N)NCc1cccc(Cl)c1)NCCCCCCN/C(=N\C(=N)NCc1cccc(Cl)c1)N(CC)CC`, the IFI was 13.8%.

For `Cc1cc(NCCC(=O)Nc2ccccc2)nc(NCCc2ccc(F)cc2)n1`, the IFI is 4.55%.

`CC(C)(CNCc1ccc(OC(F)(F)F)cc1)c1nc(-c2ccc(Cl)c(O)c2)c(-c2ccncc2)[nH]1` registered an IFI of 9.42%.

Consider `CN(C)CCOc1ccc(-c2cc(-c3ccncc3)c(-c3ccc(Cl)c(O)c3)[nH]2)cc1`, for which the IFI was determined as 2.86%.

The values are drawn from ChEMBL document CHEMBL1157539, “Thousands of chemical starting points for antimalarial lead identification” (Nature, 2010).
